# Data taken from PubChem BioAssay (Tox21).
# Where “and” joins values, the source holds several entries; their conditions need not be identical. Equal entries are not always repeated. Inconclusive results, whose numbers are uncertain, are shown with a selection of clear calls. For part of these data: Potencies beside an inconclusive call are fits to weak or partial responses and may not hold up. Calls of active or inactive are those of the source. Unless noted, calls follow the shape of the dose curve; as a rule, active = well fitted curve in the direction sought with a large enough effect in the repeat runs; inconclusive = weak or mixed curves; inactive = no such curve, though single readings can be large; an effect the other way counts as inactive or inconclusive.
# What was measured:
# [1] = qHTS assay for small molecule agonists of the antioxidant response element (ARE) signaling pathway (AID 743202; active = well fitted activation curve with a large enough effect in the signal ratio in the repeat runs, not every such curve was filed as active; inconclusive = weak or mixed curves, or effect the other way; inactive = no such curve, though single readings can be large or run the other way; the % refers to the signal ratio; also: potency is read from the fitted curve at half-maximal effect; as to activation: % is scaled to controls: 0 for no effect and ±100 for the full control effect); conditions: HepG2 ARE-bla reporter, beta-lactamase FRET, 16 h; activation: at 73.3 µM (top of the series) unless noted
# How it was run: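 HepG2 ARE-bla reporter line, 2,000 cells/well; 5 h preincubation 37 C/5% CO2; compound (DMSO) 16 h 37 C; B/G FRET substrate 2 h RT; fluorescence intensity.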
# [2] = qHTS assay for small molecule activators of the heat shock response signaling pathway (AID 743210; active = well fitted activation curve with a large enough effect in the signal ratio in the repeat runs, with a control signal flat, not every such curve was filed as active; inconclusive = weak or mixed curves; the % refers to the signal ratio; also: potency is read from the fitted curve at half-maximal effect); conditions: HeLa HSE-bla reporter, beta-lactamase ratio, 5 h; activation: at 62.6 µM (top of the series) unless noted
# How it was run: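 Beta-lactamase reporter read-out: FRET substrate fluorescence after 2.5 h at RT, following 5 h compound treatment at 37 C of HeLa cells carrying HSE-driven bla reporter; quantitative HTS format.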
# [3] = qHTS assay to identify small molecule antagonists of the peroxisome proliferator-activated receptor delta (PPARd) signaling pathway - cell viability counter screen (AID 743213); conditions: PPARd-bla HEK293H viability, CellTiter-Glo luminescence, 17 h; viability change, negative = cytotoxic: at 62 µM (top of the series) unless noted; also: nearly all actives have a fitted effect of over 50% in size; also: potency is read from the fitted curve at half-maximal effect
# How it was run: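 Viability counter-screen, qHTS format: PPARd-bla HEK293H, L165041 300 nM final, 17 h compound exposure at 37 C, CellTiter-Glo luminescence after 30 min RT.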
# [4] = biological target: Peroxisome proliferator-activated receptor delta (Homo sapiens) (UniProt Q03181); assay: qHTS assay to identify small molecule antagonists of the peroxisome proliferator-activated receptor delta (PPARd) signaling pathway (AID 743215; active = well fitted inhibition curve with a large enough effect in the signal ratio in the repeat runs, not every such curve was filed as active; inconclusive = weak or mixed curves, or effect the other way; inactive = no such curve, though single readings can be large or run the other way; the % refers to the signal ratio;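 also: cells stimulated with agonist L165041 at 300 nM final during compound exposure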; also: potency is read from the fitted curve at half-maximal effect); conditions: HEK293H PPARd-UAS-bla, beta-lactamase FRET ratio, antagonist, 17 h
# How it was run: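 Cells: HEK293H with a UAS-driven beta-lactamase reporter responsive to PPARd. Compounds were co-added with L165041 (300 nM, final) and incubated 17 h at 37 C before a 2 h room-temperature FRET substrate step and fluorescence reading.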
# [5] = biological target: Vitamin D3 receptor (Homo sapiens) (UniProt P11473); assay: qHTS assay to identify small molecule antagonists of the vitamin D receptor (VDR) signaling pathway (AID 743223; active = well fitted inhibition curve with a large enough effect in the signal ratio in the repeat runs, not every such curve was filed as active; inconclusive = weak or mixed curves, or effect the other way; inactive = no such curve, though single readings can be large or run the other way; the % refers to the signal ratio; also: potency is read from the fitted curve at half-maximal effect); conditions: VDR-UAS-bla HEK293T, beta-lactamase FRET ratio, 16 h; activity change, negative = inhibition: at 61 µM (top of the series) unless noted
# How it was run: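 Quantitative HTS in VDR-bla reporter cells stimulated with 1alpha,25-dihydroxyvitamin D3, 3 nM final. Compound exposure 16 h, 37C, 5% CO2. Read-out: beta-lactamase FRET substrate fluorescence, 2 h RT.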
# [6] = qHTS assay to identify small molecule agonists of the farnesoid-X-receptor (FXR) signaling pathway - cell viability counter screen (AID 743218); conditions: FXR-bla HEK293T viability, CellTiter-Glo luminescence, 16 h; viability change, negative = cytotoxic: at 62.6 µM (top of the series) unless noted; also: potency is read from the fitted curve at half-maximal effect; nearly all actives have a fitted effect of over 45% in size
# How it was run: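 Cells were seeded, left 5 h at 37 C and 5% CO2, then dosed with compound in DMSO for 16 h. After the beta-lactamase FRET read, CellTiter-Glo was added and luminescence measured 30 min later.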
# [7] = qHTS assay to identify small molecule antagonists of the vitamin D receptor (VDR) signaling pathway - cell viability counter screen (AID 743225); conditions: VDR-bla HEK293T viability, CellTiter-Glo luminescence, 16 h; viability change, negative = cytotoxic: at 61 µM (top of the series) unless noted; also: nearly all actives have a fitted effect of over 50% in size; also: potency is read from the fitted curve at half-maximal effect
# How it was run: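 Same-well multiplex: following 16 h treatment of HEK 293T cells carrying a UAS-driven beta-lactamase reporter with compound and agonist (3 nM final), and a 2 h FRET substrate step, CellTiter-Glo was added and luminescence read after 30 min.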
# [8] = biological target: Vitamin D3 receptor (Homo sapiens) (UniProt P11473); assay: qHTS assay to identify small molecule agonists of the vitamin D receptor (VDR) signaling pathway (AID 743222; calls by dose curve; also: potency is read from the fitted curve at half-maximal effect); conditions: HEK293T VDR-UAS-bla, beta-lactamase FRET ratio, 16 h; activation: at 63.5 µM (top of the series) unless noted
# How it was run: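 Cells carrying a VDR-driven beta-lactamase reporter are seeded at 2,000 per well and rested 4 h. Compounds in DMSO are added for 16 h at 37C, and FRET substrate fluorescence is measured after 2 h at room temperature.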
# [9] = qHTS assay to identify small molecule agonists of the vitamin D receptor (VDR) signaling pathway - cell viability counter screen (AID 743224); conditions: VDR-bla HEK293T viability, CellTiter-Glo luminescence, 16 h; activity change, negative = cytotoxicity: at 62.6 µM (top of the series); also: nearly all actives have a fitted effect of over 50% in size; also: potency is read from the fitted curve at half-maximal effect
# How it was run: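 Cells: VDR-bla, 2,000/well, settled 4 h. Treatment: compounds in DMSO, 16 h, 37C/5% CO2. Readout: CellTiter-Glo luminescence after 30 min RT.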
# [10] = qHTS assay for small molecule activators of the heat shock response signaling pathway - cell viability counter screen (AID 743209); conditions: HSE-bla HeLa viability, CellTiter-Glo luminescence, 5 h; activity change, negative = cytotoxicity: at 62.6 µM (top of the series); also: nearly all actives have a fitted effect of over 50% in size; also: potency is read from the fitted curve at half-maximal effect
# How it was run: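 Cytotoxicity counter screen run in parallel with the HSE beta-lactamase reporter, using the same wells. HeLa HSE-bla cells received compound for 5 h at 37 C; ATP-based CellTiter-Glo luminescence was measured after 30 min at room temperature.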
# [11] = biological target: Peroxisome proliferator-activated receptor delta (Homo sapiens) (UniProt Q03181); assay: qHTS assay to identify small molecule agonists of the peroxisome proliferator-activated receptor delta (PPARd) signaling pathway (AID 743212; calls by dose curve; also: % is scaled to controls: 0 for no effect and ±100 for the full control effect); conditions: HEK293H PPARd-UAS-bla, beta-lactamase FRET ratio, 17 h; activation: at 62.6 µM (top of the series) unless noted
# How it was run: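 Read-out: beta-lactamase FRET fluorescence after 2 h room-temperature incubation with LiveBLAzer B/G substrate. Cells were HEK293H carrying a UAS-bla reporter for PPARd, treated at 37 C with DMSO-dissolved compounds.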
# [12] = qHTS assay to identify small molecule agonists of the peroxisome proliferator-activated receptor delta (PPARd) signaling pathway - cell viability counter screen (AID 743211); conditions: PPARd-bla HEK293H viability, CellTiter-Glo luminescence, 17 h; activity change, negative = cytotoxicity: at 62.6 µM (top of the series); also: nearly all actives have a fitted effect of over 55% in size; also: potency is read from the fitted curve at half-maximal effect
# How it was run: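 Tox21 library compounds, delivered in DMSO, were incubated 17 h with PPARd-bla HEK293H cells; cytotoxicity was taken from CellTiter-Glo luminescence read 30 min after reagent addition.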
# [13] = biological target: Bile acid receptor (Homo sapiens) (UniProt Q96RI1); assay: qHTS assay to identify small molecule agonists of the farnesoid-X-receptor (FXR) signaling pathway (AID 743220; active = well fitted activation curve with a large enough effect in the signal ratio in the repeat runs, not every such curve was filed as active; inconclusive = weak or mixed curves, or effect the other way; the % refers to the signal ratio; also: % is scaled to controls: 0 for no effect and ±100 for the full control effect); conditions: HEK293T FXR-UAS-bla, beta-lactamase FRET ratio, 16 h; activation: at 62.6 µM (top of the series)
# How it was run: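 FXR-UAS-bla HEK 293T cells carrying a UAS-driven beta-lactamase reporter were plated for 5 h at 37C/5% CO2, then exposed to DMSO-dissolved Tox21 10K compounds for 16 h at 37C. A LiveBLAzer B/G FRET substrate was loaded for 2 h at room temperature before fluorescence reading.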
# [14] = qHTS assay to identify small molecule antagonists of the farnesoid-X-receptor (FXR) signaling pathway - cell viability counter screen (AID 743221; active = well fitted cell-killing curve with a large enough effect in the repeat runs, not every such curve was filed as active; inconclusive = weak or mixed curves, or effect the other way; inactive = no such curve, though single readings can be large or run the other way); conditions: FXR-bla HEK293T viability, CellTiter-Glo luminescence, 16 h; activity change, negative = cytotoxicity: at 62.6 µM (top of the series) unless noted
# How it was run: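 Cytotoxicity is taken from ATP luminescence (CellTiter-Glo, 30 min, room temperature) in FXR-bla HEK 293T cells previously incubated 16 h at 37 C with compound and chenodeoxycholic acid at 50 uM final.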
# [15] = biological target: Bile acid receptor (Homo sapiens) (UniProt Q96RI1); assay: qHTS assay to identify small molecule antagonists of the farnesoid-X-receptor (FXR) signaling pathway (AID 743217; active = well fitted inhibition curve with a large enough effect in the signal ratio in the repeat runs, not every such curve was filed as active; inconclusive = weak or mixed curves, or effect the other way; inactive = no such curve, though single readings can be large or run the other way; the % refers to the signal ratio; also: % is scaled to controls: 0 for no effect and ±100 for the full control effect); conditions: HEK293T FXR-UAS-bla, beta-lactamase ratio, CDCA-stimulated, 16 h; activity change, negative = inhibition: at 62.6 µM (top of the series) unless noted
# How it was run: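 Cells carrying a UAS-driven beta-lactamase reporter (GeneBLAzer FXR-UAS-bla HEK 293T) were plated and rested 5 h at 37 °C. Compounds in DMSO were added alongside chenodeoxycholic acid agonist at 50 uM final and left 16 h at 37 °C before FRET substrate readout.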
# [16] = ratio activity, negative = inhibition: at 62 µM (top of the series) unless noted
# Tags tell the direction and shape of the fitted curve or compound fluorescence and quenching.
# Sequence of UniProt Q03181 (Q03181 whole entry, looked up): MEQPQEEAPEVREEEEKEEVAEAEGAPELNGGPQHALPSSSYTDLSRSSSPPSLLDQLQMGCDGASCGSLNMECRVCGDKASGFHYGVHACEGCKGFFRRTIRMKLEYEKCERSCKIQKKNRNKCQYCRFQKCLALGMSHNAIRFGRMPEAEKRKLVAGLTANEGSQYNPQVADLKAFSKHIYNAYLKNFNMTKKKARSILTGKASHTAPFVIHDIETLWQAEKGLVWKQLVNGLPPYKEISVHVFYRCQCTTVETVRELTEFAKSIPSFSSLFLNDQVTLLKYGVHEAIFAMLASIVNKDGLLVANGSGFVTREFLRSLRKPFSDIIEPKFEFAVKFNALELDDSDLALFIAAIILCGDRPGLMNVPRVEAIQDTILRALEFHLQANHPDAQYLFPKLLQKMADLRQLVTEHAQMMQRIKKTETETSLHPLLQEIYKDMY
# Sequence of UniProt P11473 (P11473 whole entry, looked up): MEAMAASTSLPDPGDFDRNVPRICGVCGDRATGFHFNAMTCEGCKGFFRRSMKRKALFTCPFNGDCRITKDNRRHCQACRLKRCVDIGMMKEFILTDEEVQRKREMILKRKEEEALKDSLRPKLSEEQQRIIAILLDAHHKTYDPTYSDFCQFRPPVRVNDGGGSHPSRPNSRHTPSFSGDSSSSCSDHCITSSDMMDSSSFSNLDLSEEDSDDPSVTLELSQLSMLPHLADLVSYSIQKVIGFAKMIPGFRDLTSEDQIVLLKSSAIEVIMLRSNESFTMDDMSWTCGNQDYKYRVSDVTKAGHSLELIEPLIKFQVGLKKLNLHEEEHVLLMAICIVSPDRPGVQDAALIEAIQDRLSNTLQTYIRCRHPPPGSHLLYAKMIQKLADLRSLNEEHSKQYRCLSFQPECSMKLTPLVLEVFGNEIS
# Sequence of UniProt Q96RI1 (Q96RI1 whole entry, looked up): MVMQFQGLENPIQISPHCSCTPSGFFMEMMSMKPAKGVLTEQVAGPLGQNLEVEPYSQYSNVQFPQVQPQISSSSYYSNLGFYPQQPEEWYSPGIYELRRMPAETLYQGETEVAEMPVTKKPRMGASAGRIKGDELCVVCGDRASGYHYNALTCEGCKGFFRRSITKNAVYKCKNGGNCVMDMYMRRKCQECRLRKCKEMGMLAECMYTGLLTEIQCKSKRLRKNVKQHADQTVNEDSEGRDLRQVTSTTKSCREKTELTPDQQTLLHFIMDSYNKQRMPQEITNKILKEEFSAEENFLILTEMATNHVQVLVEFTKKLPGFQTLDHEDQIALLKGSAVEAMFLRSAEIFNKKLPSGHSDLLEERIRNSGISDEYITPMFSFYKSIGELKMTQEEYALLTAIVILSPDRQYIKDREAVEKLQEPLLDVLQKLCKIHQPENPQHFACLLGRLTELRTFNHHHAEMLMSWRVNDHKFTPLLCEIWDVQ
compound,measurement,setting,value
Nc1ccc(S(=O)(=O)Nc2nccs2)cc1,activation,[1],inconclusive: 12.9%
same,Potency,[2],"inconclusive: 54.9 µM [activator, single point]"
same,Potency,[3],"inactive and inconclusive: 2.98 µM [cytotoxic, single point]"
same,"ratio activity, negative = inhibition",[4]; at 62 µM (top of the series),inconclusive: 5.77%
same,"ratio activity, negative = inhibition",[4]; at 80.4 µM (top of the series),inconclusive: -30.1%
same,"activity change, negative = inhibition",[5],inconclusive: 0.814%
CC(C)(C)C(=O)OCOP(=O)(COCCn1cnc2c(N)ncnc21)OCOC(=O)C(C)(C)C,Potency,[1],active: 2.11 µM
same,Potency,[2],inactive
CCN(CCCCOC(=O)c1ccc(OC)c(OC)c1)C(C)Cc1ccc(OC)cc1 (stereo not given),Potency,[1],inactive
same,Potency,[2],inactive
same,Potency,[3],"inconclusive: 11.9 µM [cytotoxic, partial curve, poor fit]"
same,Potency,[6],"inconclusive: 13.3 µM [cytotoxic, full curve]"
same,Potency,[7],inconclusive: 23.9 µM [cytotoxic]
COc1ccnc2c1CCCCC2S(=O)c1nc2ccccc2[nH]1 (stereo not given),Potency,[1],active: 3.35 µM
same,Potency,[2],inconclusive: 33.5 µM
O=S(=O)(O)c1cccc(S(=O)(=O)O)c1,activation,[1],inconclusive: 31%
same,Potency,[2],inconclusive: 61.6 µM [activator]
same,Potency,[3],"inconclusive: 49 µM [cytotoxic, single point]"
same,"ratio activity, negative = inhibition",[4]; [16],inconclusive: -37.1%
same,Potency,[8],inconclusive: 54.9 µM [single point]
same,Potency,[5],inactive
same,Potency,[9],"inconclusive: 54.9 µM [cytotoxic, single point]"
CCN(CC)c1ccc(C(=O)c2ccccc2C(=O)O)c(O)c1,Potency,[1],"inconclusive: 68.6 µM [rising, partial curve, poor fit]"
same,Potency,[10],inactive
same,Potency,[3],"inconclusive: 49 µM [cytotoxic, single point]"
same,Potency,[6],"inconclusive: 0.174 µM [rising, full curve, poor fit]"
same,Potency,[8],"inconclusive: 3.09 µM [rising, full curve]"
same,Potency,[5],"inconclusive: 6.92 µM [fluorescent, partial curve, poor fit]"
same,"activity change, negative = inhibition",[5],inconclusive: 3.27% [at 78.8 µM]
same,Potency,[9],inactive
NCCCOCCOCCOCCCN,Potency,[1],"inconclusive: 7.7 µM [rising, full curve]"
same,Potency,[2],inactive
same,Potency,[3],inactive
same,"activity change, negative = inhibition",[5],inconclusive: 15.8%
same,Potency,[7],inactive
CC(=O)OCc1ccco1,activation,[1],inconclusive: 14.6%
same,Potency,[2],"inconclusive: 61.6 µM [activator, single point]"
same,Potency,[11],inactive
same,Potency,[3],inactive
c1ccc(CN(Cc2ccccc2)Cc2ccccc2)cc1,activation,[1],inconclusive: -24.9%
same,Potency,[2],inactive
same,Potency,[12],"inconclusive: 48.9 µM [cytotoxic, single point]"
same,Potency,[9],"inconclusive: 54.9 µM [cytotoxic, single point]"
ON(Cc1ccccc1)Cc1ccccc1,Potency,[1],inactive
same,Potency,[10],inactive
same,"activity change, negative = inhibition",[5],inconclusive: -0.0362%
same,"activity change, negative = cytotoxicity",[9],inconclusive: 30.4%
CC(S)C(=O)NCC(=O)O (stereo not given),Potency,[1],inactive
same,Potency,[10],inactive
Cc1ccc(Cl)cc1Cl,Potency,[1],inactive
same,Potency,[2],inactive
OCCC1CCCCN1 (stereo not given),activation,[1],inconclusive: 13.3% [at 94.8 µM]
same,Potency,[10],inactive
same,Potency,[12],inactive
same,Potency,[13],inactive
same,Potency,[14],"inconclusive: 0.876 µM [rising, full curve, poor fit]"
same,Potency,[8],"inconclusive: 2.2 µM [rising, partial curve, poor fit]"
CCCCCCCC(=O)OCC(O)CO (stereo not given),activation,[1],inconclusive: 1.02%
same,Potency,[10],"inconclusive: 33.5 µM [rising, single point]"
same,Potency,[2],inactive
same,activation,[11],inconclusive: 1.85%
same,Potency,[4]; [16],inactive
same,"viability change, negative = cytotoxic",[7],inconclusive: 30.1%
Clc1ccccn1,Potency,[1],inactive
same,Potency,[10],inactive
same,Potency,[3],"inconclusive: 0.195 µM [cytotoxic, full curve, poor fit]"
same,"activity change, negative = inhibition",[15],inconclusive: 9.57%
same,Potency,[5],inactive
C/C=C/C=C/CCCCCCCO,Potency,[1],"inconclusive: 61.1 µM [rising, single point]"
same,Potency,[10],"inconclusive: 49 µM [cytotoxic, partial curve]"
same,Potency,[2],"inconclusive: 54.9 µM [rising, single point]"
same,Potency,[3],"inconclusive: 38.9 µM [cytotoxic, partial curve, poor fit]"
same,Potency,[4]; [16],"inconclusive: 54.9 µM [fluorescent, partial curve, poor fit]"
same,Potency,[8],inconclusive: 54.9 µM [single point]
same,Potency,[5],"inconclusive: 3.47 µM [activator, partial curve, poor fit]"
